Measured values taken from article PMC12040169 (PLOS Biology, 2025).
Some of the results follow.

What follows are molecules tested on T1, C. trachomatis L2/434/Bu expressing GFP (CTL2-GFP). Conditions: total inclusion area; 28.5 h, 10 µM; inhibitor.
T1 construct: L2/434/Bu GFP intracellular growth in HeLa cells
Parameters: species or system HeLa; C. trachomatis total inclusion area by high-content imaging, normalised to DMSO
Outline: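 Host cell viability was gauged from Hoechst-stained nuclei counts, while chlamydial growth was taken from total inclusion area and inclusion number per well. Cells were fixed and imaged by high-content microscopy once bulk GFP and resorufin fluorescence had been measured.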

Row | SMILES | % of control remaining
1 | Cc1[nH]c2ccccc2c1C(=O)CSc1nc2ccccc2o1 [CBK266339] | 96.9719
2 | Cc1n[nH]c(=O)c2nc(-c3ccc(=O)[nH]n3)[nH]c12 [CBK008745] | 65.7773
3 | CN(C)c1ccc(-c2nc(C(F)(F)F)nn2C)cn1 [CBK307202] | 84.4999
4 | CCNC(=O)N1CC2(CCN(Cc3nc4ccccc4[nH]3)CC2)c2ccccc21 [CBK126693] | 42.1307
5 | Cn1ccnc1C1(O)CCN(C(=O)c2ccccc2F)CC1 [CBK283536] | 49.8758
6 | C[C@H](Nc1cncc(-c2cccc3ccccc23)n1)c1ccccc1 [CBK065654] | 119.15
7 | Cc1ccc(-n2ncc3c(Nc4c(C)n(C)n(-c5ccccc5)c4=O)ncnc32)c(C)c1 [CBK294449] | 96.4818
8 | COc1ccc(OCC(=O)Nc2ccc(CN3CCOCC3)cc2)cc1 [CBK269686] | 81.608
9 | Cc1nc(CN2CCN(c3cccc(C(F)(F)F)n3)CC2)cs1 [CBK304709] | 114.121
10 | C/C(=N/NC(N)=S)c1ccccc1OCC(=O)O [CBK007123] | 64.2678
11 | Cc1ccc(CNC(=O)CCC(=O)O)cc1 [CBK058951] | 140.197
12 | CC1=C[C@@H](CO)[C@H](C(C)C)C[C@H]1Cc1nnc(-c2ccncc2)o1 [CBK289222] | 97.4394
13 | COC(=O)c1cc(S(=O)(=O)N2c3ccccc3CC2C)cn1C (stereo not drawn) [CBK304384] | 47.042
14 | CC(C)C[C@H](NC(=O)COc1ccc2nc3n(c(=O)c2c1)CCCCC3)C(=O)O [CBK286656] | 49.0208
15 | Nc1nc(CSc2nnc(Cc3ccc([N+](=O)[O-])cc3)n2-c2ccccc2)cs1 [CBK267408] | 114.177
16 | Cc1cc2oc(C(=O)Nc3sc4c(c3C(=O)NC3CCS(=O)(=O)C3)CCC(C)C4)c(C)c2cc1C (stereo not drawn) [CBK266351] | 120.511
17 | COc1ccc(-c2cc(C(=O)Nc3ccc(OC(F)(F)F)cc3)cnc2-c2ccccc2)cn1 [CBK036621] | 57.365
18 | Cc1nn2c(C)c(C(=O)Nc3ccccc3)nnc2c1-c1ccccc1 [CBK270198] | 100.101
19 | Cc1cc2c(s1)c1cnn(Cc3ccccn3)c(=O)c1n2C [CBK284227] | 109.167
20 | Cc1nn(C)cc1C(=O)N1CCCC1c1nc2ccccc2[nH]1 (stereo not drawn) [CBK282371] | 101.47
21 | O=C(Nc1nc2ccccc2[nH]1)c1cccc(N2CCCS2(=O)=O)c1 [CBK304584] | 28.7374
22 | O=c1[nH]c2ncc(-c3ccsc3)nc2n1CCCO [CBK065044] | 72.9749
23 | Cc1cc(C(=O)N2CCC(C(=O)NC(c3ccccc3)c3ccc4ccccc4n3)CC2)no1 (stereo not drawn) [CBK059641] | 95.9721
24 | COc1ccc(S(=O)(=O)N2Cc3ccccc3CC2C(=O)Nc2ccc(O)cc2)cc1OC (stereo not drawn) [CBK293967] | 99.0415
25 | Cc1ccc(S(=O)(=O)NCC(=O)Nc2ccc(Cl)cn2)cc1 [CBK091357] | 74.2948
26 | NNC(=O)CN(CCc1ccccc1)S(=O)(=O)c1ccc(Cl)cc1 [CBK263754] | 104.507

Row | SMILES | % of control remaining
27 | COc1cccc(CN2C(=O)CC3(C2=O)C(=O)N(Cc2ccc4ccccc4n2)c2ccccc23)c1 (stereo not drawn) [CBK076016] | 89.9685
28 | O=C(O)c1nccnc1C(=O)N1CCN(c2ccc(Cl)cc2)CC1 [CBK286826] | 82.229
29 | Cc1noc(-c2ccccc2)c1CN1CCCN(S(=O)(=O)c2ccc(C(F)(F)F)cc2Cl)CC1 [CBK063104] | 77.2233
30 | COc1cc(-c2cnc(N)c(N3CCN(CCN(C)C)CC3)n2)cc(OC)c1OC [CBK063488] | 130.376
31 | O=C(CC1NC(=O)NC1=O)Nc1cccc2ccccc12 (stereo not drawn) [CBK267164] | 91.7697
32 | COC(=O)c1c(NC(=O)CSc2nnc3ccccn23)sc(C)c1C [CBK265943] | 100.809
33 | NC(=O)c1ccc(-c2cnc3[nH]c(=O)n(CCCN4CCOCC4)c3n2)cc1 [CBK065092] | 152.317
34 | c1cnn(CC2CCCN2c2ncnc3sc4c(c23)CCNC4)c1 (stereo not drawn) [CBK307490] | 89.6126
35 | CCCCC1C(=O)N(C)CCN1C(=O)c1cc(C)c(CC)n(C)c1=O (stereo not drawn) [CBK306527] | 77.8368
36 | Cc1ccc([N+](=O)[O-])cc1S(=O)(=O)n1ccc2c(N3CCNCC3)nccc21 [CBK059068C] | 87.9597
37 | Cc1cc(NCc2ccccc2)nc2[nH]nc(N)c12 [CBK287931] | 75.0837
38 | Cc1nc(-c2ccccc2)sc1CNC(=O)CCC(F)(F)F [CBK092365] | 100.698
39 | CCC1CCCCN1C(=O)Cc1c(C)nc(-c2cccnc2)[nH]c1=O (stereo not drawn) [CBK306240] | 36.3485
40 | Cc1cc(NC(=O)C2CCCC2)nc2c1c(=O)oc1ccccc12 [CBK287438] | 94.1863
41 | Nc1ncc(-c2cccc(-c3ccccc3)c2)nc1N1CCN(CCO)CC1 [CBK063410] | 92.9497
42 | CC(C)NC(=O)c1ccc(-n2cccn2)c(C#Cc2cccnc2)c1 [CBK284523] | 118.368
43 | Cc1ccc(-c2noc(CN3CCN(C(c4ccccc4)c4ccccc4)CC3)n2)cc1 [CBK266425] | 116.233
44 | Cc1cc(C)n(C(C)C(=O)N2CCC(Nc3cccnc3)CC2)n1 (stereo not drawn) [CBK305917] | 50.0598
45 | O=C(Cn1cccn1)NCC(c1ccccc1Cl)N1CCOCC1 (stereo not drawn) [CBK305593] | 44.6554
46 | CS(=O)(=O)Nc1ccc(N2CCNCC2)c2ccccc12 [CBK059355C] | 28.7383
47 | Nc1ncc(-c2cccc3cccnc23)nc1N1CCC[C@@H]1CO [CBK063470] | 86.9869
48 | Cc1ccc(C(=O)CSc2nc(O)c3nc[nH]c3n2)cc1 [CBK300520] | 120.787
49 | O=C(O)CCn1c2ccccc2c2cc(I)ccc21 [CBK262578] | 107.939
50 | Cc1cccn2c(=O)c(/C=C3\SC(=S)N(CC4CCCO4)C3=O)c(NCCCn3ccnc3)nc12 (stereo not drawn) [CBK263825] | 52.4901
51 | Cc1cccc(-c2ccc(CC3(C(=O)NC(C)C)CCN(C(=O)C(C)C)CC3)cc2)c1 [CBK285756] | 89.8409
52 | O=C(O)c1ccc(NC(=O)c2cnccn2)cc1 [CBK268110] | 107.295

Row | SMILES | % of control remaining
53 | CC(=O)N1CCC2(CCCC[C@H]3CNCC[C@@H]3NC(=O)CNC2=O)CC1 [CBK292167] | 122.119
54 | Cc1ccc(S(=O)(=O)NC(C)(C)C)cc1C(=O)N(C)Cc1cnn(C)c1 [CBK305433] | 48.1638
55 | COc1ccc(C2CC(c3ccc4ccccc4c3)=NN2C(=O)COc2ccccc2C(=O)O)cc1 (stereo not drawn) [CBK297503] | 102.551
56 | O=[N+]([O-])c1ccc(NC(=S)NCCCn2ccnc2)cc1 [CBK264915] | 112.806
57 | O=C(CCc1ccc(-c2ccc(F)cc2)o1)Nc1ccc(C(=O)O)cc1 [CBK300502] | 79.2558
58 | Cc1ccc(-c2nn(CCC#N)cc2C(=O)N2CCOCC2)cc1C [CBK305940] | 42.0118
59 | O=C(Cc1ccc2c(c1)CCC2)N1CCCCC1CN1CCOCC1 (stereo not drawn) [CBK282704] | 106.946
60 | CC(=O)Nc1ccc(S(=O)(=O)N2CCN(S(=O)(=O)c3ccccc3)CC2)cc1 [CBK264163] | 122.088
61 | N#CCCN(C(=O)Nc1ccc2[nH]ccc2c1)C1CCCCC1 [CBK156362] | 90.0223
62 | O=C1CC2(CCNCC2)Oc2c1ccc1ccccc21 [CBK282714] | 49.9902
63 | CCc1nc2ccc(C(=O)NCCN(C)C)cn2c1N(CC)CC(=O)N(C)C [CBK146762] | 97.9849
64 | CC(=O)Nc1ccc(NC(=O)NCC2CCCO2)c(C(F)(F)F)c1 (stereo not drawn) [CBK304150] | 50.5075
65 | Cc1cc(NCc2ccc(C(C)C)cc2)c2ccccc2n1 [CBK122786] | 81.4234
66 | O=C(Nc1ccccc1-c1ccccc1)C1CN(S(=O)(=O)c2ccccc2)CCN1S(=O)(=O)c1ccccc1 (stereo not drawn) [CBK265902] | 79.3386
67 | CCc1c(SCC(=O)O)nc2ccccc2c1C [CBK286928] | 86.5524
68 | COCCN(Cc1ccc(OC)cc1)c1c(C)nc2ccc(C(=O)Nc3ccc(NC(C)=O)cc3)cn12 [CBK146111] | 93.6162
69 | COc1ccc(CN(CCN2CCOCC2)C(=O)Nc2cccnc2)cc1OC [CBK159379] | 108.197
70 | Cc1ccn2cc(-c3ccc4c(c3)CCN4S(C)(=O)=O)nc2c1 [CBK285221] | 95.4007
71 | Cc1cc(-c2ccc(=O)n(CCNC(=O)C3CC3)n2)c(C)o1 [CBK284521] | 74.2069
72 | CN(c1ccc(C(=O)Nc2ccc(S(=O)(=O)N3CCOCC3)cc2)cc1)S(=O)(=O)c1ccccc1 [CBK264129] | 78.163
73 | CCOC(=O)N1CCC(n2c(=O)[nH]c3ccccc32)CC1 [CBK149867] | 116.082
74 | COc1cccc(CNC(=O)Cn2nnc(-c3ccc(CN4CCC(C)CC4)cc3)n2)c1OC [CBK144161C] | 100.845
75 | O=C(COc1cccc(Br)c1)Nc1nnc[nH]1 [CBK264063] | 98.1213
76 | O=C(NCCCn1ccnc1)c1ncoc1-c1ccccc1F [CBK283917] | 98.38
77 | COc1ccc(-c2cncc(NCC3CCOCC3)n2)cc1 [CBK037285] | 73.5254
78 | N#Cc1sc(-c2ccc(F)cc2)cc1NC(=O)c1cccc([N+](=O)[O-])c1 [CBK066845] | 76.1039
